Laboratory results as given in paper PMC3751744.
Results are given in words; binding and its absence hold for the method and conditions named. Binding seen in cells or lysates may run through a third protein. Some binding calls cover weakened binding; strength is not graded here.

By UniProt entry, the sequences of proteins in these tests, tags left out. Where a name states a change or a piece, a line headed by the entry shows the natural chain unless it says otherwise. Chains listed by the source or under a name are the forms on record and can include a tag or linker.
UniProt P49789: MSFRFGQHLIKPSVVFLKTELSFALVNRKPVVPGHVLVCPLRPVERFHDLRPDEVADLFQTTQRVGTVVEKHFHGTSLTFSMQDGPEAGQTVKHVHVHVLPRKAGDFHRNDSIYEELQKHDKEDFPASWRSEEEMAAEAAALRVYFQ
UniProt P62873: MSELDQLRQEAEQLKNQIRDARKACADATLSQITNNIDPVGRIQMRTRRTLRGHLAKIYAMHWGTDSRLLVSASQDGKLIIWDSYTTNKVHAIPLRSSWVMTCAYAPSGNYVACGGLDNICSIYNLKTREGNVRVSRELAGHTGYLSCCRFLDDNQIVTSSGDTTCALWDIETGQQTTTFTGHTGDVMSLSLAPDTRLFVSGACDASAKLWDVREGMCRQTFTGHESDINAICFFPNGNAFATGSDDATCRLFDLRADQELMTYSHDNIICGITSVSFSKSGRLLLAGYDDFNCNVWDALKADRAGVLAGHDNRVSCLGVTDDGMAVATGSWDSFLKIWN
UniProt Q14344: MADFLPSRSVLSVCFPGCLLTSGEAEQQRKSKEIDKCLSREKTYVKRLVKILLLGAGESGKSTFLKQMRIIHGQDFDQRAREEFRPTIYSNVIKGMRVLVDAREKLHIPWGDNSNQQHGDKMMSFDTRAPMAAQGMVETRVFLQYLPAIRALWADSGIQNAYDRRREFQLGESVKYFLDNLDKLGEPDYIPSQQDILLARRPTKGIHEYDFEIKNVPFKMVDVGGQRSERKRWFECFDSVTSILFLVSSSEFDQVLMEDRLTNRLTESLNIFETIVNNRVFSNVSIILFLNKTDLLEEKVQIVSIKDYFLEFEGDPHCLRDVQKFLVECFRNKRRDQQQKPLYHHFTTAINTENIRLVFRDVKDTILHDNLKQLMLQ
UniProt P19086: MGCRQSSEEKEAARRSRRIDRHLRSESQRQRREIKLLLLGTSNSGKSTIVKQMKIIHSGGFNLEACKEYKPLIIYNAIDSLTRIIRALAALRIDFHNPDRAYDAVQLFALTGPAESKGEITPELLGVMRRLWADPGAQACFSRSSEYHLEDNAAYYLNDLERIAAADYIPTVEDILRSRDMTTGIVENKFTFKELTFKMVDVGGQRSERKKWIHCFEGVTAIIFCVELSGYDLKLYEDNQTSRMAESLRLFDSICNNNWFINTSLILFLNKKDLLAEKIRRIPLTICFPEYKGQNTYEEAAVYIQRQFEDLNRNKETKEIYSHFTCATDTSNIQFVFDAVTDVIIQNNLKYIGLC
UniProt P50148: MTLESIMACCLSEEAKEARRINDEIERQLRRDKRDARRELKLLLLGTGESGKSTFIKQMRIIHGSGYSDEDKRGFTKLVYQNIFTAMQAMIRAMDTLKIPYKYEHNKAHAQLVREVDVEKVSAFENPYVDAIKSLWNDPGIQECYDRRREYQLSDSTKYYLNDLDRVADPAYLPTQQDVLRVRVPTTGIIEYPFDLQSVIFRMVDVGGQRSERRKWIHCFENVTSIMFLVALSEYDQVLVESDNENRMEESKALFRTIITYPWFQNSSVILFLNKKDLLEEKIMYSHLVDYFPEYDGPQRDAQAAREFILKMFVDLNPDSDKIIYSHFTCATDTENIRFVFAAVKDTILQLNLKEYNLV
GαqRC (P50148, form named): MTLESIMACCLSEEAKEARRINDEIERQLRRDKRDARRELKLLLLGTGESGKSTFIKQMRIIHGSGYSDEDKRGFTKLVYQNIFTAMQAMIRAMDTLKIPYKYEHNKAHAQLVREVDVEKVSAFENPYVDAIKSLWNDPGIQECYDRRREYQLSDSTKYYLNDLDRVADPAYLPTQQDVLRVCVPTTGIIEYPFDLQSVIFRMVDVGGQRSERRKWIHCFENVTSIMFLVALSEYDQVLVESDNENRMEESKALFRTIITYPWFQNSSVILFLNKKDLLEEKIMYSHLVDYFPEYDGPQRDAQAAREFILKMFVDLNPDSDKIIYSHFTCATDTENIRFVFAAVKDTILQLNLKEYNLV
UniProt P29992: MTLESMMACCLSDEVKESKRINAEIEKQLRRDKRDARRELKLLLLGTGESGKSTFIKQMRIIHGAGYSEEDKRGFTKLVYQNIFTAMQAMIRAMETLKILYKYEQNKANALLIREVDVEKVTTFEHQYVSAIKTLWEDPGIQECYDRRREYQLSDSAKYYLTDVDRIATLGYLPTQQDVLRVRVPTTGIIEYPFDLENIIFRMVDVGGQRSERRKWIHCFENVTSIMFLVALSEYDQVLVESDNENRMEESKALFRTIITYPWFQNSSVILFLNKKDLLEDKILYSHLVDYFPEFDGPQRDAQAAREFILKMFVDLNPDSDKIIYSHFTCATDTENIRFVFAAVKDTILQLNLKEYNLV
UniProt P63092: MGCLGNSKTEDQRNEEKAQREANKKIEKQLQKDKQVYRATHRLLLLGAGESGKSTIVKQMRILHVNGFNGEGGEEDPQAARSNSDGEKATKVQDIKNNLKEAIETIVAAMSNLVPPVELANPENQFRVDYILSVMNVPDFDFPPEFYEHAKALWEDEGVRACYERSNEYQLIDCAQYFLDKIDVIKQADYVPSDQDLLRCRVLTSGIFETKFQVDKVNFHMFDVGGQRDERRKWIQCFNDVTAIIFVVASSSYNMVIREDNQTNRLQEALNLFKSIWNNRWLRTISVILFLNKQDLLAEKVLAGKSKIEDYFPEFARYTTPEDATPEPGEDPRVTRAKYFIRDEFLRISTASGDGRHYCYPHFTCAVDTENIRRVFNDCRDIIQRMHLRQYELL
UniProt P04899: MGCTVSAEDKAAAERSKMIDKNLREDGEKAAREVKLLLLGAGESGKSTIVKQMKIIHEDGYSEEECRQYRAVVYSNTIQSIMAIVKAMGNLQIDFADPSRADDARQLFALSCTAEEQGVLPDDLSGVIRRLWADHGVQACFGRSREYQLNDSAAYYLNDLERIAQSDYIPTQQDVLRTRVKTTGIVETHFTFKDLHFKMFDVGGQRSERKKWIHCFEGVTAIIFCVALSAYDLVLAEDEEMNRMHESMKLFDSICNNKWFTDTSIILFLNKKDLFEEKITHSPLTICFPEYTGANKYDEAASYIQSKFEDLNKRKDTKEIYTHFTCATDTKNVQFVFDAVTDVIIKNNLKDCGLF
UniProt O95837: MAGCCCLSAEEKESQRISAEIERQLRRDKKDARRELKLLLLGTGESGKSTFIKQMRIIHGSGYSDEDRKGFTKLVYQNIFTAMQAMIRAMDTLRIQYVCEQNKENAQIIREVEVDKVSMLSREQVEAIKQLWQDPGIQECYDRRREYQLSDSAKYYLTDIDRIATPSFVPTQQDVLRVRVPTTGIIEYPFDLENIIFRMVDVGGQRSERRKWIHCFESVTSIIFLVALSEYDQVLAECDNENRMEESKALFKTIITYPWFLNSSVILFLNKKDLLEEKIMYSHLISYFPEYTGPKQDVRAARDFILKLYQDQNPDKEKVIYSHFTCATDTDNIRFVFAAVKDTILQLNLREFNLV
UniProt P62834: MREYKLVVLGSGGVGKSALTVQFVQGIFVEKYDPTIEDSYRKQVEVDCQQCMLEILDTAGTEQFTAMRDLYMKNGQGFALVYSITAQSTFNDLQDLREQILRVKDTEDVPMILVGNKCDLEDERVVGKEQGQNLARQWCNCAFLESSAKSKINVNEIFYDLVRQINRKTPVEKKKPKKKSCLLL

Tests used:
Experiment in all cases: co-IP; HEK293 cells co-transfected, cross-linked with 0.5 mM DSP, lysed in RIPA buffer; lysates with anti-Flag affinity agarose gel at 4°C for 4 h; Western blot; Src, HA-Gγ2 or untagged Fhit co-expressed in some samples
Flag-Fhit (human) = Flag-Fhit (human) (UniProt P49789)
Flag-Fhit L25W (human) = Flag-Fhit L25W (human) (UniProt P49789)
[1] = target: Flag-Fhit I10W/L25W (human) (UniProt P49789)
Flag-Fhit H96D (human) = Flag-Fhit H96D (human) (UniProt P49789)
Flag-Fhit Y114F (human) = Flag-Fhit Y114F (human) (UniProt P49789)
Flag-Gβ1 = Flag-Gβ1 (UniProt P62873)

binding (Flag-Fhit (human))	Substance	further results
binds	Gα13 (wild-type) (from UniProt Q14344 1-377)	–
no binding	Gαz (wild-type) (from UniProt P19086 1-355)	–
binds	GαqRC (from UniProt P50148 1-359)	binding (Flag-Fhit L25W (human)): binds; binding [1]: binds; binding (Flag-Fhit H96D (human)): binds; binding (Flag-Fhit Y114F (human)): binds
no binding	Gα11 (wild-type) (from UniProt P29992 1-359)	–
binds	Gαs (wild-type) (from UniProt P63092 1-394)	–

Second part, the substance before the results:

Substance	binding (Flag-Fhit (human))	further results
Gαi2 (wild-type) (from UniProt P04899 1-355)	no binding	–
Gα14 (wild-type) (from UniProt O95837 1-355)	no binding	–
Gαq (wild-type) (from UniProt P50148 1-359)	–	binding (Flag-Fhit L25W (human)): no binding; binding [1]: no binding; binding (Flag-Fhit H96D (human)): no binding
Fhit (untagged, pcDNA3-Fhit) (from UniProt P49789 1-147)	–	binding (Flag-Gβ1): no binding
HA-Rap1A (from UniProt P62834 1-184)	no binding	–
